Laboratory results: PubChem BioAssay AID463173 (ICCB-Longwood Screening Facility, Harvard Medical School, 2010)
Screen size: about 52,000 compounds; about 1,700 (3.3%) were called active. Cut-off read from the data, not from the text of the source: active = survival mostly below about 52% (no sharp cut-off); inactive = mostly above about 56%. Some of the results follow.

These molecules were tested on Wild type (assay: growth inhibition of S. aureus wild type versus tarO mutant, primary screen, teichoic acid synthesis inhibitors, RN4220, OD600 (AID 463173)). Conditions: S. aureus RN4220 wild type/DeltatarO growth, OD600, 18 h, hits give low values, screened at 18.75 µg/mL (by protocol).

SMILES	survival
CCN(C(=O)c1cc2c(=O)oc3ccc(C)cc3c2s1)c1ccccc1F	inactive: 78%
Cn1c(=O)oc2cc(S(=O)(=O)N3CCC(C(=O)N4CCN(c5ccc(Cl)cc5)CC4)CC3)ccc21	inactive: 84%
CCOc1ccccc1NC(c1nnc(-c2ccccc2)o1)c1ccc(F)cc1Cl (stereo unspecified)	active: 2%
Cc1ccc2nc(SCC(=O)NCc3ccco3)c(C)cc2c1	inactive: 117%
CCN(CC)c1cc(C)c2cc(NC(=O)c3ccc(F)cc3Cl)ccc2n1	inactive: 65%
CCOC(=O)c1cc(C)n(CC2CCC(C(=O)Nc3ccc(C(=O)OC)cc3)CC2)c1C (stereo unspecified)	inactive: 73%
CCOc1ccc(-c2oc3cc(Cl)ccc3c(=O)c2O)cc1OC	inactive: 103%
Cc1cccc(NS(=O)(=O)c2ccc(NC(=O)N3CCCC3)cc2)c1	inactive: 75%
COc1ccc(C2CC(=O)N(Cc3ccccc3)c3c2c(C)nn3-c2nc(C)cc(C)n2)c(OC)c1 (stereo unspecified)	inactive: 83%
COc1ccc(-n2nc3ccc(NS(C)(=O)=O)cc3n2)cc1Cl	inactive: 116%
Cc1ccccc1CNC(=O)Nc1ccc2c(c1)N(C)C(=O)c1ccccc1S2	inactive: 87%
O=c1cc(-c2ccccc2)c2ccc3c(c2o1)CN(Cc1ccccc1)CO3	inactive: 81%
CCOC(=O)c1c(-c2ccccc2)oc2ccc(N(C(C)=O)S(=O)(=O)c3ccc(C)cc3)cc12	inactive: 72%
CCC(=O)N1CCc2cc(Br)cc(S(=O)(=O)CCC(=O)NCCc3ccccc3)c21	inactive: 70%
CCc1ccccc1NC(=O)Cn1cc2c(n1)CCC(C)C2 (stereo unspecified)	inactive: 85%
CCc1ccc(NS(=O)(=O)c2ccc3[nH]cc(C(=O)N(C)Cc4ccco4)c(=O)c3c2)cc1	inactive: 85%
CCCN(C(=O)CCNC(=O)Cn1cnc2ccccc2c1=O)c1cccc(C)c1	inactive: 84%
CC(C)CN(CCNC(=O)c1cn(C)c2ccc(S(=O)(=O)N3CCCC3)cc2c1=O)CC(C)C	inactive: 134%
Cc1nn(-c2ccc(N3CCCCC3)nn2)c(C)c1CCC(=O)NCc1ccc(Cl)cc1	inactive: 127%

SMILES	survival
CCCc1cc(=O)[nH]c(Nc2cc(Cl)ccc2OC)n1	inactive: 84%
O=C(NCc1ccco1)C(c1ccccc1)N(C(=O)Cc1cccs1)c1cccnc1 (stereo unspecified)	inactive: 113%
CCC(C)NC(=O)c1sc2ncccc2c1-n1c(C)ccc1C (stereo unspecified)	inactive: 82%
CCOC(=O)c1ccc2[nH]c(CSc3nnc(-c4cccc(F)c4)n3C)cc(=O)c2c1	inactive: 65%
Cc1ccc(-n2nc(C(=O)N3CCN(c4cccc(C(F)(F)F)c4)CC3)c3c4ccccc4n(C)c3c2=O)cc1	inactive: 75%
Cc1ccc(C)c(-c2[nH]c3c(c2-c2c(-n4cccc4)n(C)c(=O)n(C)c2=O)c(=O)n(C)c(=O)n3C)c1	inactive: 82%
CCOc1cc(C2c3c(oc4ccccc4c3=O)C(=O)N2c2ccccn2)ccc1O (stereo unspecified)	inactive: 111%
Cc1cccc(NC(=O)COc2cccc3c(=O)n(C)ccc23)c1C	inactive: 73%
Cc1ccc(CNc2nccn(-c3cc(C)cc(C)c3)c2=O)cc1	inactive: 76%
CCOC(=O)c1c(NC(=O)c2cc(Cl)ccc2Cl)sc2c1CCCC2	inactive: 76%
COc1ccc(OC)c(NC(=O)c2cc(=O)c3c(C)cc(C)cc3o2)c1	inactive: 87%
Cc1ccc(CNc2cc(C)nc3nc(-c4cccc(C)c4)nn23)cc1	inactive: 146%
CN(C(=O)CSc1nc2ccc(NC(=O)COc3ccccc3)cc2s1)c1ccccc1	inactive: 84%
Cc1cc(C)n(CCc2nc3c4ccccc4nc(N4CCN(c5ccc(F)cc5)CC4)n3n2)n1	inactive: 77%
Cc1cn2c(=O)c(S(=O)(=O)NCc3ccccc3Cl)c(C)nc2s1	inactive: 88%
CCOC(=O)c1cccc(NC(=O)CCc2c(C)nn(-c3ccc(N4CCOCC4)nn3)c2C)c1	inactive: 152%
CCOc1ccccc1C(=O)NC1CCSC1=O (stereo unspecified)	inactive: 106%
CCN(C(=O)CSc1nc2ccccc2n1CC(=O)Nc1ccc(F)cc1F)c1ccccc1	inactive: 73%
COc1ccc(-c2ccc(CCC(=O)O)n2-c2ccc(Cl)cc2C)cc1	inactive: 70%

SMILES	survival
CCN(C(=O)CSc1nc2n[nH]c(C)c2c(=N)n1-c1cccc(OC)c1)c1cccc(C)c1	inactive: 67%
COc1ccc(C2Oc3nc(SC)nnc3-c3ccccc3N2C(C)=O)cc1 (stereo unspecified)	inactive: 65%
CCc1ccc(-n2nc(CO)c(C(=O)NCc3ccccc3OC)n2)cc1	inactive: 88%
Cc1ccc2[nH]c3c(=O)n(CC(=O)NCCc4ccc(Cl)cc4)ncc3c2c1	inactive: 63%
COc1ccc(NC(=O)C2CCN(c3cnccn3)CC2)cc1Cl	inactive: 83%
CCn1cc(S(=O)(=O)c2cccc(C)c2)c(=O)c2cc(F)c(N3CCN(c4ccccc4)CC3)cc21	inactive: 69%
COCCCn1c(=O)c2sccc2n2c(CCCC(=O)NCc3ccc(F)cc3)nnc12	inactive: 106%
CCN(CC)CCCNC(=O)CSc1nc2nc(C)c(Cc3c(F)cccc3Cl)c(C)n2n1	inactive: 144%
Cc1nn(C(=O)c2cc3sc(Br)cc3[nH]2)c(C)c1C	inactive: 97%
CCc1ccc(-n2nc(CO)c(C(=O)NCC(c3ccccc3)c3ccccc3)n2)cc1	inactive: 90%
Cc1ccc(N(Cc2cc3ccccc3[nH]c2=O)C(=O)c2cccc(Cl)c2)cc1	inactive: 86%
Cc1ccc(-c2cn3c(n2)sc2cc(C(=O)NCc4cccs4)ccc23)c(C)c1	inactive: 77%
COc1ccc(Cn2ccc3nc(C)c(C(=O)N4CCN(c5ccccc5OC)CC4)cc3c2=O)cc1	inactive: 66%
CC(C)NC(=O)C(c1ccccc1)N1Cc2ccccc2C1=O (stereo unspecified)	inactive: 73%
CC(C)c1ccc2occ(CC(=O)Nc3ccccc3Cl)c2c1	inactive: 81%
Cc1cc(C)nc(/N=C(\N)N2CCc3ccccc32)n1	inactive: 98%
COc1ccc(OCC2c3cc(OC)c(OC)cc3CCN2C(=O)COc2ccc(Cl)cc2Cl)cc1 (stereo unspecified)	inactive: 77%
Cc1ccc(CSc2nnc(-n3c(=O)c(C#N)cc4c(=O)n5cc(C)ccc5nc43)s2)cc1	inactive: 112%
